Reference: paper PMC12040169 (PLOS Biology, 2025)
Some of the results follow.

test system: T1, C. trachomatis L2/434/Bu expressing GFP (CTL2-GFP); design: species or system HeLa; C. trachomatis total inclusion area by high-content imaging, normalised to DMSO; settings: total inclusion area; 28.5 h, 10 µM; inhibitor
T1 construct: L2/434/Bu GFP intracellular growth in HeLa cells
Procedure, shortened: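 High-content imaging followed the bulk GFP/resorufin measurement: fixed, Hoechst-stained cells were scored for GFP inclusions and host nuclei per well. Total inclusion area and count served as growth proxies, nuclei number as the viability proxy. MIC calculation matched the bulk assay.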

Structure (SMILES) | % of control remaining
COc1cc(/C=C2/SC(=S)N(CCC(=O)N3CCN(C)CC3)C2=O)cc(OC)c1OC [CBK263656] | 94.7472
COc1ccc(C(C)C)cc1-c1cn2ccnc2c(Nc2ccc(N3CCOCC3)cc2)n1 [CBK037338] | 112.465
CCn1c2cc(C)sc2c2cnn(CCN3CCCC3)c(=O)c21 [CBK284151] | 87.4249
Cn1c(=O)n(CC(=O)NCc2ccc(F)cc2)c2cccnc21 [CBK283908] | 76.1809
CC1=NC2c3ccsc3C=CC2S1 (centres unmarked) [CBK008720] | 111.685
Nc1ncc(-c2cc(C(F)(F)F)cc(C(F)(F)F)c2)nc1NCCCO [CBK063546] | 99.5205
COc1ccc(CCCC(=O)NCc2ccc(OC3CCNCC3)cc2)cc1OC [CBK028428T] | 89.769
CC(Cc1ccsc1)NS(=O)(=O)c1cccc(C(=O)N2CCCC2)c1 (centres unmarked) [CBK306923] | 73.2483
COCCc1noc(CC2CCN(c3ncc(C#N)cc3F)CC2)n1 [CBK304153] | 79.8111
O=C(NC(C(=O)N/N=C/c1cccs1)c1n[nH]c(=O)c2ccccc12)c1ccccc1 (centres unmarked) [CBK261250] | 85.5255
N#Cc1ccc(OCC(=O)Nc2cccnc2-n2cncn2)cc1 [CBK306004] | 20.5652
Cc1n[nH]c2c1C(c1ccc(C(=O)O)cc1)C1=C(COC1=O)N2 (centres unmarked) [CBK286546] | 100.945
COc1ccccc1NC(=O)NCCC1SC(NC2CCCCCC2)=NC1=O (centres unmarked) [CBK067473] | 96.0285
c1csc(-c2nn3c(Cn4nnc5ccccc54)nnc3s2)c1 [CBK268204] | 93.2674
O=S(=O)(NCc1cccc(F)c1F)c1cc2c(N3CCNCC3)nccc2s1 [CBK047588C] | 91.1397
O=C1CCC(=O)N1CCOc1nccnc1N1CCN(Cc2ccccc2)CC1 [CBK084288] | 88.9002
Cc1cnc2c(Cl)c(C(=O)N3CCC4(CCCNC4)C3)nn2c1 (centres unmarked) [CBK307472] | 86.2077
COc1ccc([N+](=O)[O-])cc1CSc1nnc(COc2ccccc2C)n1C [CBK265820] | 109.086
O=C(O)c1ccc(CSc2nnc(-c3ccncc3)n2-c2ccc(Br)cc2)cc1 [CBK267559] | 91.9304
O=[N+]([O-])c1ccc(CN2CCC(Oc3nccnc3OC3CCCCC3)CC2)cc1 [CBK082861T] | 84.8248
CC(C)C(=O)N1CCC(n2nc(-c3ccco3)ccc2=O)CC1 [CBK284244] | 73.1768
CCN(CC)CCN1C(=O)c2oc3cc(C)c(C)cc3c(=O)c2C1c1cc(Br)c(O)c(OC)c1 (centres unmarked) [CBK266846] | 111.604
CC(NS(=O)(=O)c1ccccc1)C(=O)Nc1ccc(S(N)(=O)=O)cc1 (centres unmarked) [CBK266929] | 128.752
Cc1ccc(S(=O)(=O)N2CCC(n3c(=O)[nH]c4ccccc43)CC2)cc1Cl [CBK149691] | 85.508
CC[C@H]1CN(S(=O)(=O)c2ccccc2)CC[C@H]1CC(=O)N(C)CC#N [CBK289140] | 89.8179

Structure (SMILES) | % of control remaining
O=C(Nc1ccc(O)cc1C(=O)O)c1cccc(Br)c1 [CBK018511] | 94.1106
COc1ccc(S(=O)(=O)Nc2c(C(=O)O)sc3ncccc23)cc1OC [CBK049979] | 114.562
CCOC(=O)c1cnn(C2CCCN(Cc3cn(C)nc3C)C2)c1 (centres unmarked) [CBK304044] | 97.6696
O=C(Nc1nc(OCC(F)(F)F)cnc1-c1ccc(Cl)cc1Cl)c1cc2ccccc2s1 [CBK145358] | 70.0267
CC(C)c1ccc(S(=O)(=O)Nc2ccc3[nH]c(C(F)(F)F)nc3c2)cc1 [CBK044470] | 42.6275
O=C(NCc1ccc(Cl)cc1)c1cc(-c2ccc(F)cc2)nc2ccccc12 [CBK294451] | 89.1451
CN(Cc1ccccc1)C(=O)[C@H]1C[C@@H](O)[C@H](O)[C@@H]2N=C(Nc3ccc(Cl)cc3)S[C@@H]21 [CBK288949] | 98.4036
c1cc2c3c(ccc(CSCCc4ccncc4)c3c1)CC2 [CBK261074G] | 76.4527
COc1cccc(NC(=O)CN(c2ccccc2)S(=O)(=O)c2ccc(Cl)cc2)c1 [CBK265366] | 85.3342
Fc1ccc(Nc2cncc(-c3cccs3)n2)cc1Cl [CBK065813] | 55.7687
N#Cc1ccc(Sc2cccc(F)c2)c(F)c1 [CBK002909] | 84.0625
CCc1nccn1CCC(=O)NC1CCCN(Cc2ccccc2F)C1 (centres unmarked) [CBK306652] | 74.5638
CCNC(=O)c1ccc(-c2ccc(S(C)(=O)=O)cc2)nc1 [CBK158882] | 103.424
CC(NC(=O)N1CCNC(=O)C1)c1ccccc1 (centres unmarked) [CBK155877] | 95.9925
O=c1n(-c2ccc3c(c2)OCO3)ccn1S(=O)(=O)c1ccc2c(c1)OCCO2 [CBK106636] | 108.437
O=C(Cn1c(-c2ccc(F)cc2)cc2cccnc21)N1CCCC1 [CBK285384] | 80.5943
Cc1cccn2cc(COC(=O)c3ccc(F)cc3N)nc12 [CBK298310] | 83.679
Cc1ccc(C)n1NC(=O)c1ccccc1[N+](=O)[O-] [CBK266151] | 90.2842
N#Cc1cccc(S(=O)(=O)Nc2cccc3[nH]ccc23)c1 [CBK155771] | 90.6684
O=C(Nc1ccccc1C(=O)N1CCN(Cc2ccccc2)CC1)c1ccc(F)cc1 [CBK264948] | 110.727
COc1ccc(CCN(Cc2ccc(Cl)c(Cl)c2)C(=O)NCCCSC)cc1OC [CBK158758] | 79.976
Nc1ncc(-c2cccc(O)c2)nc1-c1ccc(C(=O)NCCO)cc1 [CBK064143] | 90.6785
O=c1c(N2CCNCC2)nccn1CCOc1cccc(Cl)c1Cl [CBK013463] | 81.4952
CCc1ccc(C(O)CNC2CCN(Cc3cscn3)CC2)cc1 (centres unmarked) [CBK304733] | 18.6609
CC(C)NCC(O)c1c2c(cc3c1CCC3)CCC2 (centres unmarked) [CBK012972F] | 77.629
